In the RNAGym collection of RNA variant scans (doi:10.7554/elife.90254) one finds self-cleavage data, which are given here for 167 variants.

Read counts are not given, so values of variants with three or more changes are uncertain.

B1: LINE1-mini (parent)
chain: GGCAGAGCUCAACACAGCGUGGCAAAGUGGCUGUGGCUAGACUGCC

In this series the parent is B1. Description: self-cleavage, relative activity (ratio to wild type); higher = more cleavage; in vitro, sequencing; the parent is a self-cleaving ribozyme.
As to G1C A24U G30U, the self-cleavage was 0.1.
With G1C C10A U20C G27U A41C, the self-cleavage came out at 0.02.
In the case of G1C G17C A39C it was 0.01; in that of G1C C15A G27C G44C C45G, 0.05; in that of G1C G2U U9G A16C C18A, 0.05.
In the case of G1C G21U C23A G29A C37A it was 0.02.
As for G1C G19U G27C G44C, the figure is 0.05; as for G1C C8A C10U A12C C15U U28C C45G, 0.03.
Consider G1C G7A C10G G30U A41U G44U, for which the self-cleavage was found to be 0.
As for G1C C10A G22C C45G, the figure is 0.02; as for G1C C13G G30U, 0.02; as for G1C C13U G44C, 0.05.
In the case of G1C C13U G44A it was 0.03.
Take G1C G17A C18A G27U: the self-cleavage worked out at 0.
In the case of G1C G7U C8U U20C G27A G36C it was 0.05; in that of G1C G2C C42U, 0.05.
As for G1C G5U U20C G40U, the figure is 0.02; as for G1C C8A A14U G19U, 0.06.
As to G1C C10A C15A G22C, the self-cleavage came to 0.02.
Turning to G1C G19C C37A, the self-cleavage is 0.02.
In the case of G1C G5U A41G G44A it was 0.02.
On to G1C C10A C13G C37G, for which the self-cleavage was 0.01.
In the case of G1C C3U A14G G27U U34A C37A it was 0.05.
In the case of G1C C8U A12G G36A it was 0.01.
As for G1C C13G A16G G22U, the figure is 0.01; as for G1C C18G G21A C37A, 0.05; as for G1C G30U U34G G35U C46G, 0.02.
As to G1C C18A U34G U38C, the self-cleavage worked out at 0.01.
For the variant G1C C10A G40A A41C, the self-cleavage was 0.
For G1C C23U U34C, the self-cleavage turned out to be 0.01.
As for G1C C10A C15U A25G G30U, the figure is 0.
In the case of G1C A24G C42A it was 0.02; in that of G1C G17C A41G, 0.
As to G1C G27U G30A C31G C42G C45A C46A, the self-cleavage stood at 0.01.
Regarding G1C C10A G36A U38C, the self-cleavage came to 0.
In the case of G1C C31A G35U C37U it was 0.07.
In the case of G1C A39U C42G, the self-cleavage worked out at 0.04.
In the case of G1C U9A C13U G30C it was 0; in that of G1C G19U A26G C37U, 0.04; in that of G1C C3G C18U A25U, 0.08.
As for G1C C10G A41C, the figure is 0.02; as for G1C C42A C45A, 0.04.
On to G1C G7A C46G, for which the self-cleavage is 0.07.
As for G1C A41U C45U C46A, the figure is 0.06; as for G1C C3G G29C G33A C37G, 0.03.
As to G1C G5C A11C C18U, the self-cleavage amounted to 0.01.
In the case of G1C C10A G21C U28A G33C it was 0; in that of G1C G36A U38G A41G, 0.02; in that of G1C C3U G21A A24C G27C U34G, 0.03.
In the case of G1C G5A A6U C37A C42G it was 0.01; in that of G1C G19U G40A, 0.06.
In the case of G1C G7C C13U C31U it was 0.02; in that of G1C C3G A16C, 0.22; in that of G1C G21U U32G, 0.01.
G1C G17A C23U A26U G30A G33A: the self-cleavage is 0.04.
In the case of G1C C3G G30U C31A it was 0.29; in that of G1C G19A A25C G27U, 0.04; in that of G1C C8A G17C G40U, 0.06.
As for G1C C18G G21U C42G C46A, the figure is 0.03; as for G1C C10G G33A, 0.01.
In the case of G1C C10A U20G G40U it was 0.02; in that of G1C C15G G22C U38A, 0; in that of G1C C10A A26U A41G G44A C45A, 0.07.
For G1C C15G C31G U38G, the self-cleavage is 0.
For G1C C8U C10G C23A G27U, the self-cleavage stood at 0.01.
In the case of G1C C10A A26G it was 0.04; in that of G1C C8G U20A A39G, 0.01; in that of G1C C8U G30U, 0.
As for G1C G21A G22U G40A G44C, the figure is 0.03.
In the case of G1C A26C U28G G33U it was 0.
Take G1C C8A U9C G27A G40A: the self-cleavage stood at 0.01.
Consider G1C G2A C18G G29C C37A A41G, for which the self-cleavage was determined as 0.02.
As to G1C G5U A41U G44C, the self-cleavage was 0.
Consider G1C C13A U43C, for which the self-cleavage was found to be 0.01.
As for G1C C10U U28C G29U U32C G40C, the self-cleavage was 0.
G1C A24U U32G C46U: the self-cleavage was determined as 0.07.
In the case of G1C C23A C31G U38C, the self-cleavage was determined as 0.02.
As for G1C G5A G30C, the figure is 0.01.
In the case of G1C G30U C42A it was 0.02; in that of G1C C13A C18U C31G, 0.03; in that of G1C G5C G17A G19A G29A G40U, 0.08.
In the case of G1C G2C A4G U28C G33C it was 0.08.
Take G1C G21A G22C C23G A24G A25U: the self-cleavage was 0.1.
In the case of G1C C10U C15G C18G G27A C46A it was 0.01.
As for G1C C8U C10G G21C G29A G35C, the figure is 0.01.
Regarding G1C G5C C18U G19A C45G, the self-cleavage came out at 0.01.
As for G1C C15G A24G G29U C42U G44U, the figure is 0; as for G1C G30C A41G, 0.
Consider G1C G7C C8U C18A A25C C45A, for which the self-cleavage was 0.02.
As for G1C C15U G21A G29U G36C A39U, the figure is 0.01; as for G1C G36C G40U, 0.01.
As for G1C C3U C8U G19A, the figure is 0.42; as for G1C A24U U32A C42U U43C, 0.01.
As for G1C G2U U9G G21U C42A C45U, the figure is 0.03.
On to G1C C3G C10A G17U, for which the self-cleavage was found to be 0.03.
In the case of G1C C13G C15U G29C A39G it was 0.03; in that of G1C G19A G21U G27A, 0.1.
In the case of G1C G19A G33C it was 0.01.
As for G1C G21A A26U U32A C37G A41C U43A, the figure is 0; as for G1C C10A C31U U32G, 0.02; as for G1C G30A G44U, 0.03.
As for G1C C10A U32A C45G, the self-cleavage was determined as 0.01.
As for G1C C18G G30U, the figure is 0.03; as for G1C G29C A39U G40C C42G, 0.03; as for G1C G22C A39U C45A, 0.06.
In the case of G1C U9A C23G A26G it was 0.08; in that of G1C C18A G19U A41G, 0.02.
As for G1C A39G G44U C45A, the figure is 0; as for G1C C10A U43A, 0.
Consider G1C C23A G36U A39G, for which the self-cleavage was found to be 0.04.
As for G1C C3U G5A A11C A26G, the figure is 0.04; as for G1C C10A A25C A41U, 0.
In the case of G1C G5A C10U it was 0.02; in that of G1C G2A C18A C23U C42A, 0.02.
In the case of G1C G2C U9A A16G it was 0.05; in that of G1C C3U C45G, 0.33; in that of G1C C3A G21U U32C, 0.1.
With G1C G22A C37U, the self-cleavage is 0.
In the case of G1C A24C G30C it was 0.28; in that of G1C C8U U34G U38C, 0.
As for G1C C3U G5U U9A C10U C23A A26C G44U, the figure is 0.02; as for G1C G5A A11G U32C, 0.02; as for G1C C15U C18A G27U G40U, 0.02.
As for G1C G27A G40A U43C, the figure is 0.01; as for G1C A24G G27U A39G, 0.07.
G1C C8A C13U G22A C31U: the self-cleavage came out at 0.04.
In the case of G1C A26U U32C U43C it was 0.03; in that of G1C G5A A12C G36A G44C, 0.02.
As for G1C G5U C13A G29C U34A G36U, the figure is 0.01.
In the case of G1C G5A A14G it was 0.02.
In the case of G1C G2U A11C C13A A26G G27U, the self-cleavage is 0.01.
In the case of G1C G7U U32C it was 0.02.
In the case of G1C G5U C10A it was 0.01; in that of G1C G5U C10G, 0.01.
As for G1C C8G A11G G27U G30U C31G U34G G36U, the figure is 0; as for G1C C15G U28G, 0.01.
As to G1C G5U A6G C10A G29U, the self-cleavage was determined as 0.01.
With G1C G2U C3U A12C C31G U38A, the self-cleavage was determined as 0.01.
Turning to G1C G5U U38G, the self-cleavage stood at 0.01.
In the case of G1C G19A G29A A41G it was 0.03; in that of G1C G7U G17A, 0.04; in that of G1C G7U G19U G40C, 0.04.
As for G1C C31G C37G, the figure is 0.02; as for G1C G19U A24U A25U U38A C46A, 0.02.
Take G1C A26G G35U: the self-cleavage came to 0.03.
As for G1C C8A G22U A41G C45U, the figure is 0.04; as for G1C G2U C18A G36U A41C, 0.02; as for G1C G30A A39C, 0.02.
As for G1C G30U G36C A41C, the self-cleavage came to 0.03.
G1C G17C G22C A26U U43A: the self-cleavage turned out to be 0.01.
On to G1C C15G G17U A24C, for which the self-cleavage came out at 0.02.
As for G1C C15G A16C, the figure is 0.05; as for G1C C18G A25U U34A A41C, 0.01; as for G1C G22U G29C C45A, 0.08.
As for G1C G2U U9C U38G, the self-cleavage was determined as 0.05.
In the case of G1C G5U G35U it was 0; in that of G1C G2A C18A C23A, 0; in that of G1C G22A A26G U32G, 0.06.
In the case of G1C C8G A14U it was 0; in that of G1C G17A C46U, 0.06.
As for G1C G7C C18U, the self-cleavage came to 0.03.
In the case of G1C C13A A16G it was 0.05; in that of G1C C3G A11U A39G, 0; in that of G1C C10A A24U G35U C37U, 0.01.
In the case of G1C G7A C18A it was 0.03; in that of G1C G2C C13A A16C U28A U34C G36A, 0.21.
As for G1C G5A G27U A41C, the figure is 0.04.
